Experimental data reported in patent US20110319597A1 (CAPHALON AUSTRALIA, published 2011).

B1: TNFα dAb Fc variant S63P (Fc fusion, name in Kabat numbering)
chain: DIQMTQSPSSLSASVGDRVTITCRASQAIDSYLHWYQQKPGKAPKLLIYSASNLETGVPSRFPGSGSGTDFTLTISSLLPEDFATYYCQQVVWRPFTFGQGTKVEIKRV[human IgG1 Fc with changes left out]
B2: TNFα dAb Fc variant S67Y (Fc fusion, name in Kabat numbering)
chain: DIQMTQSPSSLSASVGDRVTITCRASQAIDSYLHWYQQKPGKAPKLLIYSASNLETGVPSRFSGSGYGTDFTLTISSLLPEDFATYYCQQVVWRPFTFGQGTKVEIKRV[human IgG1 Fc with changes left out]
B3: TNFα dAb Fc variant S76K (Fc fusion, name in Kabat numbering)
chain: DIQMTQSPSSLSASVGDRVTITCRASQAIDSYLHWYQQKPGKAPKLLIYSASNLETGVPSRFSGSGSGTDFTLTIKSLLPEDFATYYCQQVVWRPFTFGQGTKVEIKRV[human IgG1 Fc with changes left out]
B4: TNFα dAb Fc variant S76H (Fc fusion, name in Kabat numbering)
chain: DIQMTQSPSSLSASVGDRVTITCRASQAIDSYLHWYQQKPGKAPKLLIYSASNLETGVPSRFSGSGSGTDFTLTIHSLLPEDFATYYCQQVVWRPFTFGQGTKVEIKRV[human IgG1 Fc with changes left out]
B5: TNFα dAb Fc variant S67Q (Fc fusion, name in Kabat numbering)
chain: DIQMTQSPSSLSASVGDRVTITCRASQAIDSYLHWYQQKPGKAPKLLIYSASNLETGVPSRFSGSGQGTDFTLTISSLLPEDFATYYCQQVVWRPFTFGQGTKVEIKRV[human IgG1 Fc with changes left out]
B6: TNFα dAb Fc variant S67L (Fc fusion, name in Kabat numbering)
chain: DIQMTQSPSSLSASVGDRVTITCRASQAIDSYLHWYQQKPGKAPKLLIYSASNLETGVPSRFSGSGLGTDFTLTISSLLPEDFATYYCQQVVWRPFTFGQGTKVEIKRV[human IgG1 Fc with changes left out]
B7: TNFα dAb Fc variant S65D (Fc fusion, name in Kabat numbering)
chain: DIQMTQSPSSLSASVGDRVTITCRASQAIDSYLHWYQQKPGKAPKLLIYSASNLETGVPSRFSGDGSGTDFTLTISSLLPEDFATYYCQQVVWRPFTFGQGTKVEIKRV[human IgG1 Fc with changes left out]
B8: TNFα dAb Fc variant S77Y (Fc fusion, name in Kabat numbering)
chain: DIQMTQSPSSLSASVGDRVTITCRASQAIDSYLHWYQQKPGKAPKLLIYSASNLETGVPSRFSGSGSGTDFTLTISYLLPEDFATYYCQQVVWRPFTFGQGTKVEIKRV[human IgG1 Fc with changes left out]
B9: TNFα dAb Fc variant S65Q (Fc fusion, name in Kabat numbering)
chain: DIQMTQSPSSLSASVGDRVTITCRASQAIDSYLHWYQQKPGKAPKLLIYSASNLETGVPSRFSGQGSGTDFTLTISSLLPEDFATYYCQQVVWRPFTFGQGTKVEIKRV[human IgG1 Fc with changes left out]
B10: TNFα dAb Fc variant S76Y (Fc fusion, name in Kabat numbering)
chain: DIQMTQSPSSLSASVGDRVTITCRASQAIDSYLHWYQQKPGKAPKLLIYSASNLETGVPSRFSGSGSGTDFTLTIYSLLPEDFATYYCQQVVWRPFTFGQGTKVEIKRV[human IgG1 Fc with changes left out]
B11: TNFα dAb Fc variant S77P (Fc fusion, name in Kabat numbering)
chain: DIQMTQSPSSLSASVGDRVTITCRASQAIDSYLHWYQQKPGKAPKLLIYSASNLETGVPSRFSGSGSGTDFTLTISPLLPEDFATYYCQQVVWRPFTFGQGTKVEIKRV[human IgG1 Fc with changes left out]
B12: TNFα dAb Fc variant S76A (Fc fusion, name in Kabat numbering)
chain: DIQMTQSPSSLSASVGDRVTITCRASQAIDSYLHWYQQKPGKAPKLLIYSASNLETGVPSRFSGSGSGTDFTLTIASLLPEDFATYYCQQVVWRPFTFGQGTKVEIKRV[human IgG1 Fc with changes left out]
B13: TNFα dAb Fc variant S77L (Fc fusion, name in Kabat numbering)
chain: DIQMTQSPSSLSASVGDRVTITCRASQAIDSYLHWYQQKPGKAPKLLIYSASNLETGVPSRFSGSGSGTDFTLTISLLLPEDFATYYCQQVVWRPFTFGQGTKVEIKRV[human IgG1 Fc with changes left out]
B14: TNFα dAb Fc variant S76D (Fc fusion, name in Kabat numbering)
chain: DIQMTQSPSSLSASVGDRVTITCRASQAIDSYLHWYQQKPGKAPKLLIYSASNLETGVPSRFSGSGSGTDFTLTIDSLLPEDFATYYCQQVVWRPFTFGQGTKVEIKRV[human IgG1 Fc with changes left out]
B15: TNFα dAb Fc variant S67A (Fc fusion, name in Kabat numbering)
chain: DIQMTQSPSSLSASVGDRVTITCRASQAIDSYLHWYQQKPGKAPKLLIYSASNLETGVPSRFSGSGAGTDFTLTISSLLPEDFATYYCQQVVWRPFTFGQGTKVEIKRV[human IgG1 Fc with changes left out]
B16: TNFα dAb Fc variant S77D (Fc fusion, name in Kabat numbering)
chain: DIQMTQSPSSLSASVGDRVTITCRASQAIDSYLHWYQQKPGKAPKLLIYSASNLETGVPSRFSGSGSGTDFTLTISDLLPEDFATYYCQQVVWRPFTFGQGTKVEIKRV[human IgG1 Fc with changes left out]
B17: TNFα dAb Fc variant S76P (Fc fusion, name in Kabat numbering)
chain: DIQMTQSPSSLSASVGDRVTITCRASQAIDSYLHWYQQKPGKAPKLLIYSASNLETGVPSRFSGSGSGTDFTLTIPSLLPEDFATYYCQQVVWRPFTFGQGTKVEIKRV[human IgG1 Fc with changes left out]
B18: TNFα dAb Fc variant S77A (Fc fusion, name in Kabat numbering)
chain: DIQMTQSPSSLSASVGDRVTITCRASQAIDSYLHWYQQKPGKAPKLLIYSASNLETGVPSRFSGSGSGTDFTLTISALLPEDFATYYCQQVVWRPFTFGQGTKVEIKRV[human IgG1 Fc with changes left out]
B19: TNFα dAb Fc variant S65Y (Fc fusion, name in Kabat numbering)
chain: DIQMTQSPSSLSASVGDRVTITCRASQAIDSYLHWYQQKPGKAPKLLIYSASNLETGVPSRFSGYGSGTDFTLTISSLLPEDFATYYCQQVVWRPFTFGQGTKVEIKRV[human IgG1 Fc with changes left out]
B20: TNFα dAb Fc variant S67K (Fc fusion, name in Kabat numbering)
chain: DIQMTQSPSSLSASVGDRVTITCRASQAIDSYLHWYQQKPGKAPKLLIYSASNLETGVPSRFSGSGKGTDFTLTISSLLPEDFATYYCQQVVWRPFTFGQGTKVEIKRV[human IgG1 Fc with changes left out]
B21: TNFα dAb Fc variant S76Q (Fc fusion, name in Kabat numbering)
chain: DIQMTQSPSSLSASVGDRVTITCRASQAIDSYLHWYQQKPGKAPKLLIYSASNLETGVPSRFSGSGSGTDFTLTIQSLLPEDFATYYCQQVVWRPFTFGQGTKVEIKRV[human IgG1 Fc with changes left out]
B22: TNFα dAb Fc variant S65A (Fc fusion, name in Kabat numbering)
chain: DIQMTQSPSSLSASVGDRVTITCRASQAIDSYLHWYQQKPGKAPKLLIYSASNLETGVPSRFSGAGSGTDFTLTISSLLPEDFATYYCQQVVWRPFTFGQGTKVEIKRV[human IgG1 Fc with changes left out]
B23: TNFα dAb Fc variant S76L (Fc fusion, name in Kabat numbering)
chain: DIQMTQSPSSLSASVGDRVTITCRASQAIDSYLHWYQQKPGKAPKLLIYSASNLETGVPSRFSGSGSGTDFTLTILSLLPEDFATYYCQQVVWRPFTFGQGTKVEIKRV[human IgG1 Fc with changes left out]
B24: TNFα dAb Fc variant S77H (Fc fusion, name in Kabat numbering)
chain: DIQMTQSPSSLSASVGDRVTITCRASQAIDSYLHWYQQKPGKAPKLLIYSASNLETGVPSRFSGSGSGTDFTLTISHLLPEDFATYYCQQVVWRPFTFGQGTKVEIKRV[human IgG1 Fc with changes left out]
B25: TNFα dAb Fc variant S65P (Fc fusion, name in Kabat numbering)
chain: DIQMTQSPSSLSASVGDRVTITCRASQAIDSYLHWYQQKPGKAPKLLIYSASNLETGVPSRFSGPGSGTDFTLTISSLLPEDFATYYCQQVVWRPFTFGQGTKVEIKRV[human IgG1 Fc with changes left out]
B26: TNFα dAb Fc variant S67H (Fc fusion, name in Kabat numbering)
chain: DIQMTQSPSSLSASVGDRVTITCRASQAIDSYLHWYQQKPGKAPKLLIYSASNLETGVPSRFSGSGHGTDFTLTISSLLPEDFATYYCQQVVWRPFTFGQGTKVEIKRV[human IgG1 Fc with changes left out]
B27: TNFα dAb Fc variant S77Q (Fc fusion, name in Kabat numbering)
chain: DIQMTQSPSSLSASVGDRVTITCRASQAIDSYLHWYQQKPGKAPKLLIYSASNLETGVPSRFSGSGSGTDFTLTISQLLPEDFATYYCQQVVWRPFTFGQGTKVEIKRV[human IgG1 Fc with changes left out]
B28: TNFα dAb Fc variant S67P (Fc fusion, name in Kabat numbering)
chain: DIQMTQSPSSLSASVGDRVTITCRASQAIDSYLHWYQQKPGKAPKLLIYSASNLETGVPSRFSGSGPGTDFTLTISSLLPEDFATYYCQQVVWRPFTFGQGTKVEIKRV[human IgG1 Fc with changes left out]
B29: TNFα dAb Fc variant S77K (Fc fusion, name in Kabat numbering)
chain: DIQMTQSPSSLSASVGDRVTITCRASQAIDSYLHWYQQKPGKAPKLLIYSASNLETGVPSRFSGSGSGTDFTLTISKLLPEDFATYYCQQVVWRPFTFGQGTKVEIKRV[human IgG1 Fc with changes left out]

Biological target: T1, recombinant human TNFα (CytoLab) (human, UniProt P01375 part only)
T1 construct: coated on the ELISA plate at 1 µg/ml; also called Tumour necrosis factor alpha
Experiment: ELISA on coated human TNFα

T1 sequence (P01375 77-233 limits assumed): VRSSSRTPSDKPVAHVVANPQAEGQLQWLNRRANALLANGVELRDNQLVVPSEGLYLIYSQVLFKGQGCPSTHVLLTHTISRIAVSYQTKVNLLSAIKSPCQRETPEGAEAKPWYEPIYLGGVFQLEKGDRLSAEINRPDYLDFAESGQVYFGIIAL

Binder | A450 (AU)
B1 | 0.205 AU
B2 | 0.944 AU
B3 | 0.767 AU
B4 | 0.902 AU
B5 | 0.419 AU
B6 | 0.863 AU
B7 | 0.593 AU
B8 | 0.852 AU
B9 | 0.889 AU
B10 | 0.797 AU
B11 | 0.952 AU
B12 | 0.97 AU
B13 | 0.761 AU
B14 | 0.758 AU
B15 | 0.944 AU
B16 | 0.485 AU
B17 | 0.472 AU
B18 | 0.925 AU
B19 | 1.01 AU
B20 | 0.819 AU
B21 | 0.761 AU
B22 | 0.903 AU
B23 | 0.832 AU
B24 | 0.827 AU
B25 | 0.19 AU
B26 | 0.999 AU
B27 | 0.723 AU
B28 | 0.188 AU
B29 | 0.8 AU
